ChEMBL document CHEMBL1156829
In all, about 5,400 compounds were measured (“IFI”: median about 2, highest 2% from about 22 on). This is one part of the list.

Assay: NOVARTIS: Inhibition Frequency Index (IFI) - the number of HTS assays where a compound showed > 50% inhibition/induction, expressed as a percentage of the number of assays in which the compound was tested.
Assay type: functional

Row | SMILES | IFI [%]
1 | NC(=O)C(Cc1ccccc1)Nc1ccc([N+](=O)[O-])cc1[N+](=O)[O-] (stereo unspecified) | 0
2 | OCCc1cn(-c2ccccc2)c2ccccc12 | 0
3 | Cc1ccccc1-c1cnnc(NCC2CCCCO2)n1 (stereo unspecified) | 0
4 | COc1ccc(N2C(=O)[C@@H]3C[C@H]2CN3C(=O)c2cccc(Cn3nc(C)cc3C)c2)cc1Cl | 1.87
5 | FC(F)(F)c1ccccc1NC(=S)N1CCCN(c2nc3ccc(Cl)cc3s2)CC1 | 6.2
6 | Cc1oc(-c2cccc(C(F)(F)F)c2)cc1C(=O)O | 0
7 | OC(CN1CCN(C/C=C/c2ccccc2)CC1)Cn1c2ccc(Br)cc2c2cc(Br)ccc21 (stereo unspecified) | 3.03
8 | COc1ccc(OCC(=O)Nc2cccc(-c3nc4ncccc4o3)c2)cc1 | 2.15
9 | CCC[n+]1ccc(/C=C/c2ccc(Br)cc2)cc1 | 0
10 | O=C(NCc1nnc(SCC2CCCO2)n1Cc1ccccc1)c1cccc2ccccc12 (stereo unspecified) | 1.72
11 | C[n+]1ccn(-c2ccc(C(=O)c3ccc(-n4cc[n+](C)c4)cc3)cc2)c1 | 1.41
12 | CCOc1ccc2nc(C)cc(Nc3ccc(OCc4ccccc4Cl)cc3)c2c1 | 2.38
13 | COc1ccc(C(=O)C[n+]2ccc3c(c2)nc(-c2ccc(OC)cc2OC)n3C)cc1 | 0
14 | CCCN1CCC(N2C[C@@H](NC3CCCCCCC3)C[C@H]2C(=O)NCCc2ccc3c(c2)OCO3)CC1 | 0.99
15 | CCC1CCCCN1S(=O)(=O)c1cc(Br)cc2c1N(C(=O)C1CC1)CC2 (stereo unspecified) | 0
16 | CCc1ccc(Nc2cc(C)nc3nc(C)nn23)cc1 | 0
17 | COc1ccc(CC(=O)Nc2sc3c(c2C(=O)Nc2cccc4ccccc24)CCCC3)cc1 | 0
18 | O=c1c2c3c(sc2ncn1Cc1cccc(Cl)c1)CC(N1CCCCC1)CC3 (stereo unspecified) | 1.75
19 | Cc1oc2c(cc(NS(=O)(=O)c3ccc(F)cc3)c3ccccc32)c1C(=O)OCc1ccccc1 | 0
20 | c1ccc([B-](c2ccccc2)(c2ccccc2)c2ccccc2)cc1 | 1.27
21 | O=C(Cn1c(-c2ccccc2)c[n+]2ccsc12)c1ccccc1 | 3.17
22 | CC(=O)N1CCc2cc(Br)cc(S(=O)(=O)N3CCCC(C)C3)c21 (stereo unspecified) | 0
23 | O=C(Nc1ccccc1Cl)c1cc2ccccc2cc1O | 12.3
24 | CCOC(=O)c1cccc(OC(=O)c2ccccc2)c1 | 0
25 | O=C(CN1CCN(C(=O)c2ccco2)CC1)Nc1ccccc1Br | 1.67
26 | Nc1cc(C(=O)Nc2ccc(C3=NCCCN3)cc2)ccc1C(=O)Nc1ccc(C2=NCCCN2)cc1 | 2.63

Row | SMILES | IFI [%]
27 | O=C(Nc1ccc(-c2nc3ccc(-c4nc5ccc(NC(=O)c6ccccc6[N+](=O)[O-])cc5[nH]4)cc3[nH]2)cc1)c1ccccc1[N+](=O)[O-] | 0
28 | O=C(NCCc1ccc(Cl)cc1)C1CCCN(c2nnc(N3CCCC3=O)s2)C1 (stereo unspecified) | 2.04
29 | CCN(CC)c1cc(-c2ccccn2)nc(-c2ccccn2)n1 | 15.4
30 | Cc1cccc(NC(=O)c2cc(Cl)nc3ccccc23)c1 | 2.08
31 | CCN1/C(=C/c2sc3ccc(-c4ccccc4)cc3[n+]2CCO)C=Cc2cc(OC)ccc21 | 7.14
32 | O=[N+]([O-])c1ccc(S(=O)(=O)NCCCCNc2ccnc3cc(Cl)ccc23)cc1 | 3.74
33 | CC(C)(C)CC(C)(C)Nc1c(-c2ccccc2OC(=O)C2CCCCC2)nc2ccccn12 | 2.83
34 | COc1ccc(C2c3cccn3-c3ccccc3N2C(=O)CN(C(=O)Nc2ccc(C(F)(F)F)cc2)C2CC2)cc1 (stereo unspecified) | 4.2
35 | CN(C)CCCNCc1cc(-c2cccnc2)ccc1O | 1.71
36 | O=C(COc1cccc(Cl)c1)Nc1nccs1 | 5.95
37 | CC1Cc2ccc(F)cc2CN1C(=O)c1ccc(COc2ccccc2Br)o1 (stereo unspecified) | 2.86
38 | CC(C)CN1CCC(O)(c2ccc3oc(C(=O)Nc4ccc5c(c4)OCO5)cc3c2)CC1 | 0.848
39 | O=C(CCl)NCCCCNc1ccnc2cc(Cl)ccc12 | 2.04
40 | Cc1cc(Nc2ccc(N(C)C)cc2)n2ncnc2n1 | 0
41 | COc1ccc2nc(C)cc(Nc3ccc(N4CCN(C)CC4)cc3)c2c1 | 5.59
42 | N=c1n(CCN2CCCC2)c2ccccc2n1CC(O)c1ccc(Cl)c(Cl)c1 (stereo unspecified) | 8.2
43 | CC[n+]1c(C)cc2c(sc3ccccc32)c1C | 9.26
44 | COC1=CC(=O)c2c(ccc3cc(O)ccc23)C1=O | 7.02
45 | CN1CCc2c(sc3nc(SCc4ccc(F)cc4)n(-c4ccccc4)c(=O)c23)C1 | 2.5
46 | CN(C)c1ccc(C2N(C)c3ccccc3N2C)cc1 | 5.73
47 | c1ccc(-c2c3c(cc4ccccc24)C[N+]2(CCCC2)C3)cc1 | 3.03
48 | COc1cccc(C2C(C(=O)Nc3ccccc3)=C(C)N=c3sc(=Cc4c[nH]c5ccccc45)c(=O)n32)c1 (stereo unspecified) | 2.44
49 | Cc1ccccc1C=NNc1nc2ccccc2[nH]1 | 0
50 | O=C(Nc1ccc(N2CCCCC2)cc1)c1cc2ccccc2o1 | 10.9
51 | O=C1c2cccc3cccc(c23)C(=O)N1c1ccc(-c2c3ccccc3c(-c3ccc(N4C(=O)c5cccc6cccc(c56)C4=O)cc3)c3ccccc23)cc1 | 0
52 | CC(C)c1cccc(C(C)C)c1NC(=O)N(Cc1ccccc1)C(C)c1nc2ccccc2c(=O)n1-c1ccc(Cl)cc1 (stereo unspecified) | 4.21

Row | SMILES | IFI [%]
53 | Cc1c2cnn(CC(=O)O)c(=O)c2c(C)n1Cc1cccc(Cl)c1 | 0
54 | Cc1ccccc1Cn1c(C)c[n+]2ccsc12 | 0
55 | O=C(O)c1ccc2c(c1)N=C(c1ccccc1)N(Cc1cccnc1)C2 | 1.22
56 | CC(C)(C)CC(C)(C)Nc1c(-c2ccccc2OC(=O)C2CCC2)nc2ccccn12 | 3.85
57 | CC(C)CC1C(c2ccc(Cl)cc2)C(C(=O)c2ccccc2)C2(C(=O)Nc3ccc(Br)cc32)N1C(=O)NCc1ccccc1 (stereo unspecified) | 3.64
58 | COC(=O)C1=C(C)N(C)C(C)=C(C(=O)OC)C1c1ccc([N+](=O)[O-])cc1 | 0
59 | CCOc1ccc(S(=O)(=O)Oc2cccc3cccnc23)cc1 | 0
60 | Cn1nc(C(=O)NCc2ccc(F)cc2)c2c1CCC(N1CCC(CO)CC1)C2 (stereo unspecified) | 1.25
61 | Cc1c(-c2ccccc2)c2ccccc2n1CCc1ccc(C)[n+](C)c1 | 1.22
62 | O=C(COc1ccccc1)Nc1nccs1 | 7.48
63 | CN(C)CCCNc1ncc(C(=O)NCc2ccccc2)c(NCCc2ccccc2)n1 | 3
64 | CCc1cc2c(Sc3nnc(N)s3)ncnc2s1 | 3.08
65 | CN(C)c1ccc(N=Cc2ccc(N3CCOCC3)cc2)cc1 | 0
66 | Cc1cc(N2CCCCC2)nc(NCc2ccccc2)n1 | 2.35
67 | CCCCCOc1ccc(/C=C2/N=C(c3ccccc3)OC2=O)cc1 | 0
68 | O=C(O)CCCCCNc1ncnc2sc3c(c12)CCCC3 | 0.741
69 | Cc1cc2c(cc1C)NC(c1ccccc1F)C1=C(CC(C)(C)CC1=O)N2 (stereo unspecified) | 2.56
70 | CCOc1ccc2nc(C)c(CN(C)Cc3ccccc3)c(O)c2c1 | 0
71 | Cc1cc(C)cc(NC(=O)c2cc(-c3ccc(Cl)cc3)nc3ccccc23)c1 | 2.7
72 | CCC1CCCCN1C(=O)C1CC(=O)N(c2ccc(OC)cc2)C1c1ccc(OC)cc1 (stereo unspecified) | 0
73 | CCOC(=O)C1=C(C)N/C(=C\c2cc(C)n(-c3ccc(C)cc3C)c2C)C1=O | 0
74 | CCc1nnc2sc(-c3ccc(NC(=O)c4ccc(Br)o4)cc3)nn12 | 7.69
75 | CCOC(=O)c1c(NC(=O)c2ccc(S(=O)(=O)N(C)c3ccccc3)cc2)sc2c1CCN(C(=O)OCC)C2 | 0
76 | COc1ccc(C2=C/C(=C/c3cccc(OC)c3OC)C(=O)O2)cc1OC | 0
77 | CCOC(=O)c1cnc2ccc(OCC)cc2c1NCC1CCCN1CC (stereo unspecified) | 0
78 | CCCC(=O)N1c2ccc(OC)cc2-c2c(ssc2=S)C1(C)C | 0

Row | SMILES | IFI [%]
79 | COc1ccc(C(OCCS(=O)(=O)CCO)(c2ccccc2)c2ccc(OC)cc2)cc1 | 0.746
80 | Cc1ccccc1OCCSc1nc2ccc(NC(=O)c3cccs3)cc2s1 | 0
81 | Cc1c(C)c2c(c(C)c1O)CC[C@](C)(CN1CCN(c3cc(N4CCCC4)nc(N4CCCC4)n3)CC1)O2 | 5.2
82 | O=C(Oc1ccc(N2C(=O)c3ccc([N+](=O)[O-])cc3C2=O)cc1)c1ccco1 | 0
83 | CC(=O)N(C1=C(N2CCOCC2)C(=O)c2ccccc2C1=O)c1ccc(F)cc1 | 24.7
84 | Cc1ccccc1NC(=O)N1CCN(C(=O)c2nc(-c3ccccc3)nc(C)c2C(=O)OC(C)C)CC1C (stereo unspecified) | 1.89
85 | Cc1cc(Nc2ccc(Cl)c(Cl)c2)n2nc(C)nc2n1 | 0
86 | COc1ccc(C2CC(=O)C3=C(C2)NC(C)=C(C(=O)OC2CCCCC2)C3c2ccc(F)cc2)cc1OC (stereo unspecified) | 4.71
87 | Cc1sc2nc3c4ccccc4c(NCCCN(C)C)nn3c(=O)c2c1C | 12.5
88 | Cc1ccc(NC(=O)c2sc3nc4c(c(-c5cccs5)c3c2N)CCCC4)cc1 | 2.41
89 | C=C(c1ccccc1)[n+]1ccc(/C=C/c2ccccc2O)cc1 | 5.46
90 | CCC(COC)NC(=O)c1cn(C2CCCCC2)cc(C(=O)NC(C)(C)C)c1=O (stereo unspecified) | 1.71
91 | CCN1CCN(c2cc(C)c3cc(NC(=O)/C=C/c4cccc(Cl)c4)ccc3n2)CC1 | 0
92 | c1ccc(C2CC(C3CC(c4ccccc4)OC(c4ccccc4)C3)CC(c3ccccc3)O2)cc1 (stereo unspecified) | 13.3
93 | CC(C)(C)NC(=O)C(C1CC1)N1C(=O)c2cc(O)ccc2NC(=O)[C@@H]1CCCCN (stereo partly specified) | 0.826
94 | CC(C)(C)c1ccc2c(c1)CN(C1CCCCC1)CO2 | 1.82
95 | CCCCCCOc1ccc(C(C)=NNC2=NCCN2)cc1[N+](=O)[O-] | 0
96 | c1ccc(C2=Nc3ccccc3C(c3ccccc3)(c3ccccc3)N2)cc1 | 0
97 | COc1cccc(-c2cc(N=C(NCc3ccco3)SC)n[nH]2)c1 | 0
98 | O=c1ccc2cc(Cl)c(O)c(Cl)c2o1 | 7.14
99 | COc1ccc(-c2cc3c(nn2)-c2ccccc2C3=O)cc1 | 8.05
100 | C[n+]1cc(-c2ccc3cccc([N+](=O)[O-])c3n2)cc2ccccc21 | 15.4
101 | NS(=O)(=O)c1ccc(CCNC(=O)/C=C/c2ccc3c(c2)OCO3)cc1 | 0
